The target in assay [1] is LRP2 CR89 (human) (UniProt P98164). In words: solid-phase binding assay, CR protein coated on plate, anti-RAP detection.
Assay [2] concerns the target LRP2 CR89 V1047D (human) (UniProt P98164). In words: condition: 100 nM (highest concentration in Figure 6); solid-phase assay on coated CR protein, single-site non-linear fit.
For assay [3], the target named is LRP2 CR89 V1047D R1088D (human) (UniProt P98164). Described as above.
The target in assay [4] is LRP2 CR89 V1047D (human) (UniProt P98164). In words: solid-phase assay on coated CR protein, anti-RAP detection, A450.
Assay [5] has as its target LRP2 CR89 V1047D R1088D (human) (UniProt P98164). Described as above.
Assay [6] deals with LRP2 CR89 (human) (UniProt P98164). The description is as above.

The chains behind the UniProt entries cited, without tags or fusion partners. Where a name states a change or a piece, a line headed by the entry shows the natural chain unless it says otherwise. Residues count along the entry.
UniProt P98164, residues 1025-1102: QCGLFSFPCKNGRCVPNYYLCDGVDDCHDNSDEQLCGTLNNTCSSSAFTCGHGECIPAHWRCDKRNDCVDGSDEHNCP
UniProt P30533: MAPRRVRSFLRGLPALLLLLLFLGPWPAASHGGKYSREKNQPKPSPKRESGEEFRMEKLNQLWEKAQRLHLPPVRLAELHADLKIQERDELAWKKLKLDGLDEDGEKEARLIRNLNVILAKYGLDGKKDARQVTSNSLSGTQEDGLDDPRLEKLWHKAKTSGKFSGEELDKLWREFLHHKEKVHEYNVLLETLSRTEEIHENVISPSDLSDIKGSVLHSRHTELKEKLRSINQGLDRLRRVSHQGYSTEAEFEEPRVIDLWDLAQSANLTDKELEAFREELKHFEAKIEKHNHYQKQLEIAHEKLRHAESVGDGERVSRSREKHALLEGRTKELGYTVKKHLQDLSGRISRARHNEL

This note sets out measurements from patent US20100210517A1.

No constants are given. Whether binding was seen depends on the method and setting. Some results given as binding are weak or reduced against the parent protein; the word gives no strength.

Take “MegaRAP1 d3 double revertant T213S, E270K (from UniProt P30533 235-353) (ligand)”: the binding result in the assay with LRP2 CR89 (human) [1] is recorded as “binds”.

In the case of “RAP d3 (wild-type domain 3 of human RAP, amino acids 201-319 of mature RAP) (from UniProt P30533 235-353) (ligand)”, the binding result is given as “no binding” with LRP2 CR89 V1047D (human) [2], “no binding” in assay [3], “no binding (tested: 100 nM)” in the assay with LRP2 CR89 V1047D (human) [4] and “no binding (tested: 100 nM)” in assay [5].

As for “RAP d3 forward mutant E251K, K256A, K270E (from UniProt P30533 235-353) (ligand)”, the binding result with LRP2 CR89 (human) [6] was “binds”.
